{"source": "patent US20250051410A1", "about": "(KAHR MEDICAL, published 2025)", "molecular_target": "T1, CD47 (human, UniProt Q08722)", "T1 construct": "whole, on cells; Endogenous CD47 on the cells used; also called hCD47; human CD47", "test": "flow cytometry, HT1080 cells (CD47 only) and HT1080-HLA-G cells with anti HLA-G, anti human-IgG1 detection (legend of FIG. 11)", "protocol": "Binding was determined following immunostaining of the IgG backbone using anti human-IgG1 antibody, followed by flow cytometry analysis. GMFI values are presented and were used to create binding curve graphs with the GraphPad Prism software.", "data": [{"binder": "DSP216 WT (Fc fusion) chain 1: QTGTIPKPTLWAEPDSVITQGSPVTLSCQGSLEAQEYRLYREKKSASWITRIRPELVKNGQFHIPSITWEHTGRYGCQYYSRARWSELSDPLVLVMTGAYPKPTLSAQPSPVVTSGGRVTLQCESQVAFGGFILCKEGEEEHPQCLNSQPHARGSSRAIFSVGPVSPNRRWSHRCYGYDLNSPYVWSSPSDLLELLVPGVSKKPSLSVQPGPVVAPGESLTLQCVSDVGYDRFVLYKEGERDLRQLPGRQPQAGLSQANFTLGPVSRSYGGQYRCYGAHNLSSECSAPSDPLDILITGQIRGTPFISVQPGPTVASGENVTLLCQSWRQFHTFLLTKAGAADAPLRLRSIHEYPKYQAEFPMSPVTSAHAGTYRCYGSLNSDPYLLSHPSEPLELVVSGGGGSGGGGSGGGGS[human IgG1 Fc with changes left out here] chain 2: [about 350 residues left out here]GGGGSGGGGS[human IgG1 Fc with changes left out here]", "values": [{"measurement": "binding result", "value": "binds"}]}, {"binder": "DSP216 V21 (Fc fusion) chain 1: QTGTIPKPTLWAEPDSVITQGSPVTLSCQGSLEAQEYRLYREKKSASWITRIRPELRKNGQFHIPSITWEHTGRYGCQYYSRARWSELSDPLVLVMTGAYPKPTLSAQPSPVVTSGGRVTLQCESQVAFGGFILCKEGEEEHPQCLNSQPHARGSSRAIFSVGPVSPNRRWSHRCYGYDLNSPYVWSSPSDLLELLVPGVSKKPSLSVQPGPVVAPGESLTLQCVSDVGYDRFVLYKEGERDLRQLPGRQPQAGLSQANFTLGPVSRSYGGQYRCYGAHNLSSECSAPSDPLDILITGQIRGTPFISVQPGPTVASGENVTLLCQSWRQFHTFLLTKAGAADAPLRLRSIHEYPKYQAEFPMSPVTSAHAGTYRCYGSLNSDPYLLSHPSEPLELVVSGGGGSGGGGSGGGGS[human IgG1 Fc with changes left out here] chain 2: [about 350 residues left out here]GGGGSGGGGS[human IgG1 Fc with changes left out here]", "values": [{"measurement": "binding result", "value": "binds"}]}, {"binder": "DSP216 V3 (Fc fusion) chain 1: QTGTIPKPTLWAEPDSVITQGSPVTLSCQGSLEAQEYRLYREKKSASWITRIRPELVKNGQFHIPSITWEHTGRYGCQYYSRARWSELSDPLVLVMTGAYPKPTLSAQPSPVVTSGGRVTLQCESQVAFGGFILCKEGEEEHPQCLNSQPHARGSSRAIFSVGPVSPNRRWSHRCYGYDLNSPYVWSSPSDLLELLVPGVSKKPSLSVQPGPVVAPGESLTLQCVSDVGYDRFVLYKEGERDLRQLPGRQPQAGLSQANFTLGPVSRSYGGQYRCYGAHNLSSECSAPSDPLDILITGQIRGTPFISVQPGPTVASGENVTLLCQSWRQFHTFLLTKAGAADAPLRLRSIHEYPKYQAEFPMSPVTSAHAGTYRCYGSLNSDPYLLSHPSEPLELVVSGGGGSGGGGSGGGGS[human IgG1 Fc with changes left out here] chain 2: EEELQVIQPDKSVLVAAGETATLRCTATSLIPVGPIQWFRGAGPGRELIYNQKEGHFPRVTTVSDLTKRNNMDFSIRIGNITPADAGTYYCVKFRKGSPDDVEFKSGAGTELSVRAKGGGGSGGGGS[human IgG1 Fc with changes left out here]", "values": [{"measurement": "binding result", "value": "binds"}]}, {"binder": "DSP216 V6 (Fc fusion) chain 1: QTGTIPKPTLWAEPDSVITQGSPVTLSCQGSLEAQEYRLYREKKSASWITRIRPELVKNGQFHIPSITWEHTGRYGCQYYSRARWSELSDPLVLVMTGAYPKPTLSAQPSPVVTSGGRVTLQCESQVAFGGFILCKEGEEEHPQCLNSQPHARGSSRAIFSVGPVSPNRRWSHRCYGYDLNSPYVWSSPSDLLELLVPGVSKKPSLSVQPGPVVAPGESLTLQCVSDVGYDRFVLYKEGERDLRQLPGRQPQAGLSQANFTLGPVSRSYGGQYRCYGAHNLSSECSAPSDPLDILITGQIRGTPFISVQPGPTVASGENVTLLCQSWRQFHTFLLTKAGAADAPLRLRSIHEYPKYQAEFPMSPVTSAHAGTYRCYGSLNSDPYLLSHPSEPLELVVSGGGGSGGGGSGGGGSEPKSSDKTHTCPPCPAPEAAGGPSVFLFPPKPKDTLMISRTPEVTCVVVDVSHEDPEVKFNWYVDGVEVHNAKTKPREEQYNSTYRVVSVLTVLHQDWLNGKEYKCKVSNKALPAPIEKTISKAKGQPREPQVCTLPPSRDELTKNQVSLSCAVKGFYPSDIAVEWESNGQPENNYKTTPPVLDSDGSFFLVSKLTVDKSRWQQGNVFSCSVMHEALHNHYTQKSLSLSPGK chain 2: EEELQVIQPDKSVLVAAGETATLRCTATSLIPVGPIQWFRGAGPGRELIYNQKEGHFPRVTTVSDLTKRNNMDFSIRIGNITPADAGTYYCVKFRKGSPDDVEFKSGAGTELSVRAKGGGGSGGGGS[human IgG1 Fc with changes left out here]", "values": [{"measurement": "binding result", "value": "binds"}]}, {"binder": "DSP216 V12 short (Fc fusion) chain 1: QTGTIPKPTLWAEPDSVITQGSPVTLSCQGSLEAQEYRLYREKKSASWITRIRPELRKNGQFHIPSITWEHTGRYGCQYYSRARWSELSDPLVLVMTGAYPKPTLSAQPSPVVTSGGRVTLQCESQVAFGGFILCKEGEEEHPQCLNSQPHARGSSRAIFSVGPVSPNRRWSHRCYGYDLNSPYVWSSPSDLLELLVPGVSKKPSLSVQPGPVVAPGESLTLQCVSDVGYDRFVLYKEGERDLRQLPGRQPQAGLSQANFTLGPVSRSYGGQYRCYGAHNLSSECSAPSDPLDILITGQIRGTPFISVQPGPTVASGENVTLLCQSWRQFHTFLLTKAGAADAPLRLRSIHEYPKYQAEFPMSPVTSAHAGTYRCYGSLNSDPYLLSHPSEPLELVVSGGGGSGGGGSGGGGSEPKSSDKTHTCPPCPAPEAAGGPSVFLFPPKPKDTLMISRTPEVTCVVVDVSHEDPEVKFNWYVDGVEVHNAKTKPREEQYNSTYRVVSVLTVLHQDWLNGKEYKCKVSNKALPAPIEKTISKAKGQPREPQVCTLPPSRDELTKNQVSLSCAVKGFYPSDIAVEWESNGQPENNYKTTPPVLDSDGSFFLVSKLTVDKSRWQQGNVFSCSVMHEALHNHYTQKSLSLSPGK chain 2: EEELQVIQPDKSVLVAAGETATLRCTATSLIPVGPIQWFRGAGPGRELIYNQKEGHFPRVTTVSDLTKRNNMDFSIRIGNITPADAGTYYCVKFRKGSPDDVEFKSGAGTELSVRAKGGGGSGGGGS[human IgG1 Fc with changes left out here]", "values": [{"measurement": "binding result", "value": "binds"}]}, {"binder": "DSP216 V21 short (Fc fusion) chain 1: QTGTIPKPTLWAEPDSVITQGSPVTLSCQGSLEAQEYRLYREKKSASWITRIRPELRKNGQFHIPSITWEHTGRYGCQYYSRARWSELSDPLVLVMTGAYPKPTLSAQPSPVVTSGGRVTLQCESQVAFGGFILCKEGEEEHPQCLNSQPHARGSSRAIFSVGPVSPNRRWSHRCYGYDLNSPYVWSSPSDLLELLVPGVSKKPSLSVQPGPVVAPGESLTLQCVSDVGYDRFVLYKEGERDLRQLPGRQPQAGLSQANFTLGPVSRSYGGQYRCYGAHNLSSECSAPSDPLDILITGQIRGTPFISVQPGPTVASGENVTLLCQSWRQFHTFLLTKAGAADAPLRLRSIHEYPKYQAEFPMSPVTSAHAGTYRCYGSLNSDPYLLSHPSEPLELVVSGGGGSGGGGSGGGGS[human IgG1 Fc with changes left out here] chain 2: EEELQVIQPDKSVLVAAGETATLRCTATSLIPVGPIQWFRGAGPGRELIYNQKEGHFPRVTTVSDLTKRNNMDFSIRIGNITPADAGTYYCVKFRKGSPDDVEFKSGAGTELSVRAKGGGGSGGGGS[human IgG1 Fc with changes left out here]", "values": [{"measurement": "binding result", "value": "binds"}]}]}
